Hit rate of the full screen: of about 110,000 compounds, about 230 (0.21%) showed an effect of 50% or more. This is one part of the list.
What follows are compounds tested against DPAP1 (Plasmodium falciparum, UniProt Q8IIJ9) (assay: primary screen, percent inhibition; read by cleavage of a fluorogenic dipeptide substrate; higher = more effect of the substance).
Set-up: species or system P. falciparum D10 trophozoite lysates; single well
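Also: 30 min substrate incubation versus DMSO and 10 µM JCP410 controls.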

Sequence of DPAP1 (Q8IIJ9 whole entry, looked up): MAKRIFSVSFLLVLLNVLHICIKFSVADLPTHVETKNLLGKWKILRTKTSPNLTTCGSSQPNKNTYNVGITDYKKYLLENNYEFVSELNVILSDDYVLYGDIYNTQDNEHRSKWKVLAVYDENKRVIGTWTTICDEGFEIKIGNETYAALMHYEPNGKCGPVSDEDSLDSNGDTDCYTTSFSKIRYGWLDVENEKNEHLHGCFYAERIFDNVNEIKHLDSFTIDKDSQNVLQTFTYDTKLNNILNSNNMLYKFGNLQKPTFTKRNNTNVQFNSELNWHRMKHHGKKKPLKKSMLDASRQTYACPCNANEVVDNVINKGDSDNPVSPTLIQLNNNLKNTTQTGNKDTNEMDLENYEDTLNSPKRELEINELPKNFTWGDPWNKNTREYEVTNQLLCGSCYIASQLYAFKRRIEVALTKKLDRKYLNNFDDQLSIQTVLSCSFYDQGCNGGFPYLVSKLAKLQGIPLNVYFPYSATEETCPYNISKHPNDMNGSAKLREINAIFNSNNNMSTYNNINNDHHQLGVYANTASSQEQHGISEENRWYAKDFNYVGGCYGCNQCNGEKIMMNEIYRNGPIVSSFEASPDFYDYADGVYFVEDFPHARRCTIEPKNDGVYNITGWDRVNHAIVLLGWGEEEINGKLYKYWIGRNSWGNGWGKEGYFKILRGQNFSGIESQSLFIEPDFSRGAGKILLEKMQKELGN

Question: How did the “% Inhibition @ 10 uM” value turn out when `COc1c(C)cccc1C1=N/C(=C\c2ccc(Cl)cc2)C(=O)O1` was run?
Answer: 10.7%

Question: Which “% Inhibition @ 10 uM” value does the source give for `Cc1cc2c(c(=O)o1)C(c1cc(Br)cs1)C(C#N)=C(N)O2` (centres unmarked) here?
Answer: 1.08%

Question: `C=CCn1c2ccccc2n2cc(-c3ccc4c(c3)OCO4)nc12` was tested. Which “% Inhibition @ 10 uM” value did it give?
Answer: 3.74%

Question: With `COc1ccc(-c2nnc3c4ccccc4c(C)nn23)cc1S(=O)(=O)N1CCN(C)CC1` as the compound, how does the “% Inhibition @ 10 uM” value read?
Answer: 3.25%

Question: Which “% Inhibition @ 10 uM” value does the source give for `O=C(Nc1ccccc1)N1CCC(S)=Nc2ccccc21` here?
Answer: 5.49%

Question: Which “% Inhibition @ 10 uM” value does the source give for `CCCC1=C(C(=O)OCC)C(c2cccc(OC)c2OC)NC(=O)N1` (centres unmarked) here?
Answer: 0.0538%

Question: For `CC1CCN(c2ccc3nnc(CCC(=O)NCCCOC(C)C)n3n2)CC1`, which “% Inhibition @ 10 uM” value is on record?
Answer: 0.0147%

Question: `CC(C)Cn1cc(NC(=O)N2CCC(c3ccccc3)C2)c2ccccc2c1=O` (centres unmarked) was tested. Which “% Inhibition @ 10 uM” value did it give?
Answer: -7.93%

Question: `Cc1cc(=O)n2nc(N3CCC(C(=O)NC(C)c4ccccc4)CC3)sc2n1` (centres unmarked) was tested. Which “% Inhibition @ 10 uM” value did it give?
Answer: -3.79%

Question: How did the “% Inhibition @ 10 uM” value turn out when `N#CCNC(=O)C(CS(=O)(=O)Cc1ccccc1C(F)(F)F)CS(=O)(=O)Cc1ccccc1C(F)(F)F` was run?
Answer: -6.98%

Question: For `COC(=O)c1cc(S(=O)(=O)NCCc2ccc(C)cc2)c[nH]1`, which “% Inhibition @ 10 uM” value is on record?
Answer: -5.93%

Question: With `CCOc1cc(-c2cc(-c3ccc(N)cc3)nc(N)c2C#N)ccc1O` as the compound, how does the “% Inhibition @ 10 uM” value read?
Answer: 3.26%

Question: For `CC(C)Cc1nnc(NS(=O)(=O)c2ccc(Cl)cc2)s1`, which “% Inhibition @ 10 uM” value is on record?
Answer: 0.561%

Question: Which “% Inhibition @ 10 uM” value does the source give for `CCOc1ccccc1NC(=O)c1ccccc1N(C)S(=O)(=O)c1ccc(C)cc1` here?
Answer: 0.316%

Question: Which “% Inhibition @ 10 uM” value does the source give for `COc1ccc(CN2CCN(c3ccc(C)cc3)CC2)c(C)c1C` here?
Answer: 1.57%

Question: `CCCc1cc(O)n2nc(C)c(-c3ccc(OC)c(OC)c3)c2n1` was tested. Which “% Inhibition @ 10 uM” value did it give?
Answer: -1.11%

Question: `COc1ccc(CO/C(O)=C2\C(C)=NC3=C(C(=O)CCC3)C2c2ccc(O)c(OC)c2)cc1` (centres unmarked) was tested. Which “% Inhibition @ 10 uM” value did it give?
Answer: -0.053%

Question: With `Cc1ccc(-c2[nH]nc3c2C(c2ccccc2C)C(C#N)=C(N)O3)cc1` (centres unmarked) as the compound, how does the “% Inhibition @ 10 uM” value read?
Answer: 1.03%

Question: With `CCN1CCC(NCC(C)(C)CN(C)C)CC1` as the compound, how does the “% Inhibition @ 10 uM” value read?
Answer: -0.0908%

Question: Which “% Inhibition @ 10 uM” value does the source give for `O=C(COc1ccc(S(=O)(=O)NCc2ccccc2)cc1)NC1CCCC1` here?
Answer: 1.63%

Question: With `N#Cc1ccc(Oc2ccc(C(=O)NCC(=O)O)cc2)cc1` as the compound, how does the “% Inhibition @ 10 uM” value read?
Answer: -9.72%

Question: With `Cc1cccc(OCC(=O)Oc2ccc3c(C)cc(=O)oc3c2)c1` as the compound, how does the “% Inhibition @ 10 uM” value read?
Answer: -4.06%

Question: `CCCCNC(=O)CN1C(=O)C2CCCN2c2ncc(Cl)cc21` (centres unmarked) was tested. Which “% Inhibition @ 10 uM” value did it give?
Answer: 2.27%

Question: `O=C(c1ccccc1F)N(Cc1ccccc1)c1ccccn1` was tested. Which “% Inhibition @ 10 uM” value did it give?
Answer: 3.53%

Question: With `COc1cccc(-c2nc(-c3ccncc3)no2)c1` as the compound, how does the “% Inhibition @ 10 uM” value read?
Answer: -9.52%

Question: With `O=C(c1ccccc1)c1cnc2cc3c(cc2c1S(=O)(=O)c1ccc(Cl)cc1)OCCO3` as the compound, how does the “% Inhibition @ 10 uM” value read?
Answer: -6.42%

Question: How did the “% Inhibition @ 10 uM” value turn out when `C/C(=N/S(=O)(=O)c1ccc(C)cc1)N1CCN(S(=O)(=O)c2ccc(C)cc2)C1C(C)C` (centres unmarked) was run?
Answer: 0.408%

Question: With `CC(=O)c1c(C(C)=O)c(C)n(-c2ccc(Br)cc2)c1C` as the compound, how does the “% Inhibition @ 10 uM” value read?
Answer: 2.62%

Question: With `Cc1cc(C(F)(F)F)nc2snc(Br)c12` as the compound, how does the “% Inhibition @ 10 uM” value read?
Answer: 2.31%

Question: Which “% Inhibition @ 10 uM” value does the source give for `CCCCC(NC(=O)OCc1ccccc1)C(=O)NC(CCCCNC(=O)OCc1ccccc1)C(=O)CO` (centres unmarked) here?
Answer: 2.22%

Question: With `O=C(NCCCc1ccccc1)C1=CCN(S(=O)(=O)c2ccc(Br)cc2)CC1` as the compound, how does the “% Inhibition @ 10 uM” value read?
Answer: 1.93%

Question: How did the “% Inhibition @ 10 uM” value turn out when `Cc1ccc(Cl)cc1NC(=O)CN1CCN(Cc2ccccc2)CC1` was run?
Answer: 3.81%

Question: Which “% Inhibition @ 10 uM” value does the source give for `CCN(CCN(C)C)Cc1ccccc1C(F)(F)F` here?
Answer: -4.75%

Question: Which “% Inhibition @ 10 uM” value does the source give for `CCOC(=O)N1CCC(N2CCCCCCC2)CC1` here?
Answer: -5.11%

Question: How did the “% Inhibition @ 10 uM” value turn out when `CCOC(=O)c1sc(NCCOCc2ccccc2)nc1C` was run?
Answer: 3.59%

Question: How did the “% Inhibition @ 10 uM” value turn out when `CN(C)S(=O)(=O)c1ccccc1S(=O)(=O)NC(=O)Nc1ncc(-c2ccccc2)cn1` was run?
Answer: 0.989%

Question: Which “% Inhibition @ 10 uM” value does the source give for `CN1C(=O)N(C)C2(C)CC1(C)N(C)C(=O)N2C` here?
Answer: 2.26%

Question: For `COc1ccc(N2C(=O)C3C4C=CC(C4)C3C2=O)cc1` (centres unmarked), which “% Inhibition @ 10 uM” value is on record?
Answer: -6.82%

Question: With `Cn1c2ccccc2c2nnc(SCC(=O)c3ccccc3)nc21` as the compound, how does the “% Inhibition @ 10 uM” value read?
Answer: -4.7%

Question: For `Cn1c(=O)c2nc(Cl)c(-c3ccccc3)nc2n(C)c1=O`, which “% Inhibition @ 10 uM” value is on record?
Answer: -8.4%

Question: How did the “% Inhibition @ 10 uM” value turn out when `O=C(CCNS(=O)(=O)c1cccc2nsnc12)NCc1ccc2c(c1)OCO2` was run?
Answer: 2.74%

Question: `Cc1cc(C)c2c(-n3cccc3)c(C(=O)NCC3CCCO3)sc2n1` (centres unmarked) was tested. Which “% Inhibition @ 10 uM” value did it give?
Answer: 3.87%

Question: How did the “% Inhibition @ 10 uM” value turn out when `Cc1cc(C(=O)NCc2cccs2)[nH]n1` was run?
Answer: 2.12%

Question: With `CC1(C)CC(CCNC(=O)c2ccc(-n3cnnn3)cc2)CC(C)(C)N1` as the compound, how does the “% Inhibition @ 10 uM” value read?
Answer: -1.24%

Question: With `COc1ccc(N2CCN(C(=O)CN(C)S(=O)(=O)c3cc(Cl)ccc3Cl)CC2)cc1` as the compound, how does the “% Inhibition @ 10 uM” value read?
Answer: -0.318%

Question: Which “% Inhibition @ 10 uM” value does the source give for `O=C(NCCc1ccsc1)c1cc2c(Cl)nc3ccccc3c2s1` here?
Answer: 0.232%

Question: For `COc1ccc(-c2cn3c(n2)sc2cc(C(=O)NCCN4CCOCC4)ccc23)cc1`, which “% Inhibition @ 10 uM” value is on record?
Answer: 1.36%

Question: How did the “% Inhibition @ 10 uM” value turn out when `Cc1ccc2nc(O)c3cc(C(=O)NCc4cccnc4)sc3c2c1` was run?
Answer: 4.88%

Question: How did the “% Inhibition @ 10 uM” value turn out when `N#CCNC(=O)C(CCc1c(F)cccc1F)NC(=O)OCc1ccccc1` (centres unmarked) was run?
Answer: -1.5%

Question: With `COc1cc(C(=O)N2CCCCC2)cc(OC)c1OC` as the compound, how does the “% Inhibition @ 10 uM” value read?
Answer: -7.5%

Question: How did the “% Inhibition @ 10 uM” value turn out when `CCC(Cc1ccccc1)NC(=O)c1cc(S(=O)(=O)N2CCCC2)cn1C` (centres unmarked) was run?
Answer: -0.0652%

Question: With `CC1(C)CC(N2CN(C3CCCCC3)CC2=O)CC(C)(C)N1` as the compound, how does the “% Inhibition @ 10 uM” value read?
Answer: -5.29%

Question: Which “% Inhibition @ 10 uM” value does the source give for `CCc1nnc(NC(=O)COc2ccc(C)cc2)s1` here?
Answer: 7.73%

Question: For `CCCCN(CC)CCNC(=O)c1ccc(CS(=O)(=O)c2ccc(OC)cc2)o1`, which “% Inhibition @ 10 uM” value is on record?
Answer: -1.46%

Question: With `COCCNC(=O)CN(c1ccc(C)cc1)S(=O)(=O)c1ccccc1` as the compound, how does the “% Inhibition @ 10 uM” value read?
Answer: -7.39%

Question: `Oc1cc(-n2cccn2)c(O)c2ccccc12` was tested. Which “% Inhibition @ 10 uM” value did it give?
Answer: 4.32%

Question: How did the “% Inhibition @ 10 uM” value turn out when `O=c1[nH]c2ccccc2c(=O)n1CCCN1CCOCC1` was run?
Answer: 1.64%

Question: For `O=C(CNC(=O)c1cccs1)NCCc1ccc(Cl)cc1`, which “% Inhibition @ 10 uM” value is on record?
Answer: -3.12%

Question: `Nc1ncnc2c1ncn2CCN1CCOCC1` was tested. Which “% Inhibition @ 10 uM” value did it give?
Answer: -1.75%

Question: For `CCn1ncc(CN(C)S(=O)(=O)c2c(C)c(C)c(C)c(C)c2C)c1C`, which “% Inhibition @ 10 uM” value is on record?
Answer: -2.32%

Question: `CS(=O)(=O)N(CC(=O)NCc1ccccc1)c1ccc(Cl)cc1` was tested. Which “% Inhibition @ 10 uM” value did it give?
Answer: 2.02%

Question: For `COCCCNC(=O)Cn1ncc2ccsc2c1=O`, which “% Inhibition @ 10 uM” value is on record?
Answer: -2.92%

Question: How did the “% Inhibition @ 10 uM” value turn out when `CCOC(=O)C1=C(C)N(CC)C(=O)NC1c1ccccc1Cl` (centres unmarked) was run?
Answer: -3.44%

Question: How did the “% Inhibition @ 10 uM” value turn out when `CC(NC(=O)OCc1ccc(F)cc1)(C(F)(F)F)C(F)(F)F` was run?
Answer: 0.408%

Question: With `Cc1ccc(-n2c(C)nc3sccc3c2=O)cc1` as the compound, how does the “% Inhibition @ 10 uM” value read?
Answer: -4.72%
